PubChem BioAssay AID485294 (National Center for Advancing Translational Sciences (NCATS), 2010)
Out of some 370,000 compounds screened, about 150 (0.041%) were called active. The shares of active, inactive and inconclusive entries below differ from those in the screen. Calls come from the whole dose curve; as a rule, active = well fitted inhibition curve with a large enough effect; inconclusive = small, poorly fitted or top-dose-only effect; inactive = flat fitted curve, though single readings scatter. No potency is given beside an inconclusive call; the fits are too rough.

target: Beta-lactamase (Escherichia coli (strain K12)) (UniProt P00811); experiment: qHTS Inhibitors of AmpC Beta-Lactamase (assay with detergent); conditions: AmpC hydrolysis of nitrocefin, absorbance 480 nm, 0.01% Triton; activity change, negative = inhibition: at 114 µM (top of the series); note: nearly all actives have a fitted effect of over 25% in size;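 for activity change, negative = inhibition: 0% = no-compound wells and -100% = no-enzyme wells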
Method in brief: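 AmpC (5.3 nM in the dispensed reagent) in 20 mM phosphate pH 7.0 with 0.01% (detergent screen) or 0.0001% Triton X-100 was preincubated with compounds for 15 min at room temperature. Nitrocefin was then added from an 800 uM solution, and hydrolysis was followed at 480 nm.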
Potency is the fitted concentration of half-maximal effect; tags give direction and shape of the fitted curve.

Sequence of UniProt P00811 (P00811 whole entry, looked up): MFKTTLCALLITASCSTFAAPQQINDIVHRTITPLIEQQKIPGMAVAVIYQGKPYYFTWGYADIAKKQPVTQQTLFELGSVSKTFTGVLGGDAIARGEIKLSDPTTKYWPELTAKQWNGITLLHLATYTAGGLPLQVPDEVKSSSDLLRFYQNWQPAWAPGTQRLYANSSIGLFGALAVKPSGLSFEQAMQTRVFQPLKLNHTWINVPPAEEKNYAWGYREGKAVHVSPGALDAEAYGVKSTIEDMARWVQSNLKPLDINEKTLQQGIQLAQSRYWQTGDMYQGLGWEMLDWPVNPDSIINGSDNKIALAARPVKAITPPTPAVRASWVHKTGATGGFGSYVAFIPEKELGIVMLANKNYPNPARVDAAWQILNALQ

SMILES | Potency | activity change, negative = inhibition
COc1cccc(NC(=O)CCc2c(C)nc3nc(CNC(=O)c4cccc(F)c4)nn3c2C)c1 | inactive | 
Cc1ccccc1-c1nc2ccccc2c(=O)n1C | inconclusive [inhibitor, full curve, poor fit] | 
CCc1ccc(CN2CCc3nc(N4CCN(c5ccccc5F)CC4)ncc3C2)cc1 | inactive | 
O=C(N/N=C/C=C/c1ccco1)c1ccncc1 | inactive | 
Cc1cc(C)n(C(=O)Cn2nc(C(F)F)cc2C)n1 | inconclusive [inhibitor, full curve, poor fit] | 
CCOC(=O)/C=C1\CC(=O)Nc2cc(C)c(C)cc2N1 | inconclusive [inhibitor, full curve, poor fit] | 
COc1ccc(/C=N/NC(=O)Cc2ccc(Cl)cc2)cc1OC | inconclusive [inhibitor, single point] | 
Cc1ccc(Cl)cc1N1CCN(C(=O)c2c(C)oc3ncnc(N4CCCCC4)c23)CC1 | inactive | 
Cc1nc(C)c(NC(=O)N2CCc3ccccc32)cc1NC(=O)N1CCc2ccccc21 | inconclusive [inhibitor, partial curve, poor fit] | 
O=C1CCC(=O)N1CN(C(=O)c1ccco1)c1ccc(Cl)c(Cl)c1 | inactive | 
O=C(c1ccc2c(c1)OCO2)N1CCN(c2ccc(Cl)cc2)CC1 | inconclusive [inhibitor, full curve] | 
O=C(NC(=S)Nc1cccnc1)c1cccc(Br)c1 | inactive | 
COCCN1Cc2cccc(C(=O)Nc3c(C)cccc3C)c2C1=O | inconclusive [inhibitor, full curve, poor fit] | 
CC(C)n1nc(C(=O)OCC(=O)N2CC(=O)Nc3ccccc32)c2ccccc2c1=O | inconclusive [inhibitor, full curve, poor fit] | 
COc1cccc(C2c3[nH]c4ccccc4c3C[C@H]3C(=O)N(c4ccccc4C(=O)N4CCCC4C(=O)O)C(=O)N23)c1 (some centres not stated) | inconclusive [inhibitor, full curve, poor fit] | 
CC(=O)NS(=O)(=O)c1ccc2c(c1)C(=O)c1cc(S(=O)(=O)NC(C)=O)ccc1-2 | inconclusive [inhibitor, full curve, poor fit] | 
COc1ccc(N2C(=O)CC(SC(C)C)C2=O)cc1 (configuration not stated) | inconclusive [inhibitor, full curve, poor fit] | 
C=CCNC(=O)c1oc2ccc(S(=O)(=O)N(CC)CC)cc2c1C | inactive | 
CCCCn1c(N)c(N(CC(C)C)C(=O)C2CCCN(C(=O)c3ccc(Cl)cc3)C2)c(=O)[nH]c1=O (configuration not stated) | inactive | 
Cc1cccc(NC(=O)CNC(=O)CCc2nc3sc4c(c3c(=O)[nH]2)CCCC4)c1C | inconclusive [inhibitor, single point] | 
Cc1cccc(NC(=O)CN2C(=O)N/C(=C\c3ccccc3OCc3ccc(C(=O)O)cc3)C2=O)c1 |  | inconclusive: -15.1% [inhibitor]
CCOC(=O)c1sc(N)nc1-c1ccccc1 | inconclusive [inhibitor, full curve, poor fit] | 
COc1ccc(NC(=O)c2ccc(NCCCN3CCOCC3)c([N+](=O)[O-])c2)cc1 | inconclusive [inhibitor, single point] | 

SMILES | Potency | activity change, negative = inhibition
CCOC(=O)COc1c(C=O)cc(Br)cc1OC | inconclusive [inhibitor, full curve] | 
O=C(Cn1c(=O)nc(-c2ccccc2)c2cc(Cl)ccc21)N1CCN(c2ccccc2F)CC1 | inactive | 
Cc1ccc(S(=O)(=O)Nc2cc3c(cc2NCc2ccccc2)n(C)c(=O)n3C)cc1 | inactive | 
CC1CC(C)CN(S(=O)(=O)c2cc3c4c(c2)CCN4C(=O)CC3)C1 (configuration not stated) | inconclusive [inhibitor, full curve, poor fit] | 
CCn1c(SCC(=O)Nc2cc(C)on2)nnc1-c1ccc(S(=O)(=O)N2CCCC2)cc1 | inconclusive [inhibitor, full curve, poor fit] | 
O=C(O)c1ccc(CSCc2ccccc2F)o1 | inconclusive [inhibitor, full curve, poor fit] | 
CCc1nnc(SCC(=O)Nc2ccc(N3CCOCC3)cc2)o1 | inconclusive [inhibitor, full curve, poor fit] | 
COc1ccc2ccccc2c1CNCc1ccccn1 | inconclusive [inhibitor, full curve, poor fit] | 
CC(C)CCNC(=O)CCCOc1ccccc1 | inconclusive [inhibitor, partial curve, poor fit] | 
C=CCn1c(O)c(C(C)=NCCO)c(=O)[nH]c1=O | inconclusive [inhibitor, single point] | 
Cc1nc(CN2CCN(S(=O)(=O)c3c(Cl)cc(Br)cc3Cl)CC2)cs1 | inconclusive [inhibitor, partial curve, poor fit] | 
CCC1SC2=NC(C)=C(C(=O)OCC(C)C)C(/C=C/c3ccccc3OC)N2C1=O (configuration not stated) | inconclusive [inhibitor, single point] | 
CC(OC(=O)CNC(=O)COc1ccccc1)C(=O)N(C)Cc1ccccc1 (configuration not stated) | inconclusive [inhibitor, partial curve, poor fit] | 
O=C(COc1ccc2ccc(=O)oc2c1)Nc1ccc2c(c1)OCCO2 | inconclusive [inhibitor, full curve, poor fit] | 
CCC(C)NC(=O)[C@@H]1CSC2c3ccccc3C(=O)N21 (some centres not stated) | inconclusive [inhibitor, full curve] | 
O=C1C2CCCN2C(c2ccccc2)N1c1ccc(Cl)cc1 (configuration not stated) | inconclusive [inhibitor, single point] | 
COc1ccc(-c2cc(C)no2)cc1S(=O)(=O)N(C)c1cccc(C)c1 | inactive | 
Cc1ccc(/C=C\c2nccc3c2[nH]c2ccccc23)cc1 | inactive | 
O=C(NCc1cn2ccccc2n1)c1ccc2c(c1)OCO2 | inconclusive [inhibitor, full curve] | 
CSc1nc(-c2ccco2)nn1C(=O)c1ccc(C)cc1 | inconclusive [inhibitor, partial curve, poor fit] | 
CCOc1ccc(Nc2c(S(=O)(=O)c3ccc(Cl)cc3)cnc3ccc(OCC)cc23)cc1 | inactive | 
CCOc1ccc(C2c3c(oc4ccc(C)cc4c3=O)C(=O)N2CCCN2CCOCC2)cc1 (configuration not stated) | inactive | 
O=C(COc1ccc(S(=O)(=O)N2CCOCC2)cc1)NC1CCCCC1 | inconclusive [inhibitor, partial curve] | 

SMILES | Potency | activity change, negative = inhibition
O=C(O)c1ccc(N2C(=O)CC(N3CCN(c4ccc(Cl)cc4)CC3)C2=O)cc1 (configuration not stated) | inactive | 
CN(CC(=O)NCc1ccncc1)S(=O)(=O)c1ccc(Br)cc1 | inconclusive [inhibitor, single point] | 
CCn1cc(C(=O)N2CCc3ccccc32)c(=O)c2cc(S(=O)(=O)N(C)C3CCCCC3)ccc21 | inconclusive [inhibitor, full curve, poor fit] | 
O=C(NC1CCCCC1)N1CCN(c2ccc(Cl)cc2)CC1 | inconclusive [inhibitor, full curve, poor fit] | 
CSc1cccc(N2CC(C(=O)NCCC3=CCCCC3)CC2=O)c1 (configuration not stated) | inconclusive [inhibitor, full curve, poor fit] | 
Cc1cc(N2CCN(C)CC2)nc2ccc(NC(=O)Nc3cccc(Cl)c3)cc12 | inactive | 
COc1ccc(NC(=O)c2ccc3nccnc3c2)cc1 | inconclusive [inhibitor, single point] | 
Cn1c(SCC(=O)Nc2cccc(S(=O)(=O)N3CCOCC3)c2)nnc1-c1ccncc1 | inconclusive [inhibitor, single point] | 
Cc1ccc(N2CC(C(=O)NC(C)CCc3ccccc3)CC2=O)cc1 (configuration not stated) | inconclusive [inhibitor, full curve, poor fit] | 
Cc1ccc(S(=O)(=O)N2CCC(=O)N(C(COCc3ccccc3)Cc3ccccc3)CC2)cc1 (configuration not stated) | inconclusive [inhibitor, single point] | 
Cc1ccc(C(NC(=O)C(C)C)c2cc([N+](=O)[O-])c3cccnc3c2O)cc1 (configuration not stated) | inactive | 
NS(=O)(=O)c1ccc(NC(=O)COC(=O)CSc2n[nH]c(-c3ccccc3)n2)cc1 | inconclusive [inhibitor, full curve] | 
NC(=O)C1CCN(CC(=O)N2N=CCC2c2ccccc2)CC1 (configuration not stated) | inactive | 
Cc1c(Cl)cccc1NC(=S)N(Cc1cccnc1)Cc1ccccc1Cl | inactive | 
Cc1ccc(C)c(NC(=O)CCN2C(=O)C3CC=CCC3C2=O)c1 (configuration not stated) | inconclusive [inhibitor, full curve, poor fit] | 
COc1ccc(N2CCN(C(=O)COC(=O)CCS(=O)(=O)c3ccc(C)cc3)CC2)cc1 | inconclusive [inhibitor, partial curve, poor fit] | 
CCOC(=O)C1=C(CNC2CCCCC2)NC(=O)NC1c1cc(C)ccc1C (configuration not stated) | inconclusive [inhibitor, partial curve] | 
COC(=O)c1[nH]nc2c1C(=O)N(Cc1ccccc1)C2=O | inconclusive [inhibitor, single point] | 
O=C(Cc1cccs1)NCc1ccncc1 | inconclusive [inhibitor, partial curve, poor fit] | 
CCOC(=O)C1CCCCN1Cc1cccc(OCc2ccccc2)c1 (configuration not stated) | inactive | 
COc1ccc(-c2nnn(CC(=O)N(CCN3CCOCC3)C(C(=O)NC3CCCC3)c3ccco3)n2)cc1 (configuration not stated) | inactive | 
